# Experimental data as given in the supplement of paper PMC10502849.
# Where a name gives a salt, the structure may show the parent alone. The list shows a part of the results. Repeats are few or missing, and single values can be far off.
# Experiments:
# [1] = test system: H9 teratoma-derived LAM model cells, TSC2-/-; experiment: percent SyTOX+ dead cells; higher = more cytotoxic; details: 5 µM, treatment time 72 h, culture: 3D hyaluronic acid hydrogel
# [2] = test system: H9 teratoma-derived LAM model cells, WT; experiment: percent SyTOX+ dead cells; higher = more cytotoxic; details: 5 µM, treatment time 72 h, culture: 3D hyaluronic acid hydrogel, genotype: WT
# [3] = test system: H9 teratoma-derived LAM model cells, TSC2-/-; experiment: percent of cells invaded past median invasion distance of vehicle control; LAM is lymphangioleiomyomatosis; the cells come from teratomas of the human stem cell line H9; higher = more invasion; extreme values may be limits of the assay; details: 5 µM, treatment time 72 h, culture: 3D hyaluronic acid hydrogel
# [4] = test system: H9 teratoma-derived LAM model cells, WT; experiment: as above; details: 5 µM, treatment time 72 h, culture: 3D hyaluronic acid hydrogel, genotype: WT
# 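For percent SyTOX+ dead cells in this document: cells seeded atop a hyaluronic acid gel crosslinked via MMP-cleavable peptides, containing vitronectin peptides and methylcellulose, imaged live by high-content microscopy with automated analysis, one technical replicate per compound.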
# 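For percent of cells invaded past median invasion distance of vehicle control in this document: live cells imaged by high content microscopy and scored with in-house automated image analysis, one technical replicate per compound in each genotype and rapamycin condition.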
SMILES,percent SyTOX+ dead cells ([1]; rapamycin 0 nM) [%],percent SyTOX+ dead cells ([1]; rapamycin 20 nM) [%],percent SyTOX+ dead cells ([2]; rapamycin 0 nM) [%],percent SyTOX+ dead cells ([2]; rapamycin 20 nM) [%],percent ([3]; rapamycin 0 nM) [%],percent ([3]; rapamycin 20 nM) [%],percent ([4]; rapamycin 0 nM) [%],percent ([4]; rapamycin 20 nM) [%]
COc1ccc(CNC(=O)Nc2ncc([N+](=O)[O-])s2)cc1,21.6,16.2,10.2,8.09,46.8,29.3,28.5,13.3
COc1cc2ncnc(-n3nc(-c4ccccn4)nc3N)c2cc1OC,7.69,3.37,14.6,7.72,49.1,86.5,41.8,50.1
O=C(NC[C@H](O)CO)c1ccncc1Nc1ccc(I)cc1F,14.2,6.01,18.7,23,70.3,96.8,47.2,56.9
COc1c(O)c2c(=O)cc3c4c5c(cc(=O)c6c(O)c(OC)c(CC(C)O)c(c(c1CC(C)O)c24)c65)OCO3 (stereo not given) [Cercosporin from Cercospora hayii],90.6,88.7,92.2,72.1,66.5,30.7,56.7,64.4
CN(C)c1ccc(-c2nc3ncc(Cl)c(N4CCN(CC(=O)Nc5nccs5)CC4)c3[nH]2)cc1,9.63,5.98,18.7,12.9,79.1,51.3,69.6,35.3
Cc1ccc2nc(NCCN)c3ncc(C)n3c2c1,21.4,12.3,15,14.6,63.3,41,16.9,8.46
O=C(O)CCNc1cc(N2CCc3ccccc3CC2)nc(-c2ccccn2)n1,22.5,13.4,20.3,22.3,21.6,10.9,28.4,22.7
Cc1cc(F)c(Nc2ncnc3cc(OCc4ccccc4)ccc23)cc1O,21.1,10.4,11.6,12.8,14.7,22.3,27.4,17.9
COc1cccc2c1C(=O)c1c(O)c3c(c(O)c1C2=O)C[C@@](O)(C(C)=O)C[C@@H]3O[C@H]1C[C@H](NC(=O)C(F)(F)F)[C@H](O)[C@H](C)O1 [N-(Trifluoroacetyl)daunorubicin],68.5,77.3,76.3,70.6,19.4,23.3,52.2,42.2
Cn1cnc(-c2cc3nccc(Oc4ccc(NC(=S)NC(=O)Cc5ccccc5)cc4F)c3s2)c1,14.2,0.97,37,35.4,59.7,26.2,8.44,4.72
Cn1cc(-c2cnn3c(N)c(Br)c([C@@H]4CCCNC4)nc23)cn1,15.6,7.79,23.7,13.8,70.9,40.3,25.4,16
"CO[C@H]1C[C@@H]2CC[C@@H](C)[C@@](O)(O2)C(=O)C(=O)N2CCCC[C@H]2C(=O)O[C@H]([C@H](C)C[C@@H]2CC[C@@H](O)[C@H](OC)C2)CC(=O)[C@H](C)/C=C(\C)[C@@H](O)[C@@H](OC)C(=O)[C@H](C)C[C@H](C)/C=C/C=C/C=C/1C [Rapamycin, Sirolimus, Rapamune]",5.68,12.5,12.1,10,31.8,14.8,20.5,24.4
c1cncc(CN2CCC(n3ncc4c(N5CCOCC5)nc(-c5ccc6[nH]ccc6c5)nc43)CC2)c1,46.1,14.3,67.4,65.6,6.74,7.79,0,5.96
Cc1cccc(-c2[nH]c(C(C)(C)C)nc2-c2ccc3nccnc3c2)n1,4.41,5.83,9.28,13.5,92.5,82.9,80.6,29.7
COc1nccc(-c2c(-c3ccc(F)cc3)ncn2C2CCNCC2)n1,7.07,3.9,9.58,6.42,37.7,21.4,11.1,19
"COc1cc2ncnc(Nc3ccc(F)c(Cl)c3)c2cc1OCCCN1CCOCC1 [Gefitinib, Iressa, ZD1839]",9.14,16.5,13.9,18.2,16.8,26.1,3.28,5.33
CC1(COc2ccc3c(c2)ncn3-c2ccc3cccc(N4CCC(N)CC4)c3n2)COC1,22.6,20.3,41.7,46.7,0.94,0,1.67,2.22
NC(=O)c1cccc2[nH]c(-c3ccc(C4CCCN4)cc3F)nc12 (stereo not given),12.8,9.45,16.6,19.6,43.6,43.7,37.8,33.9
O=C(Nc1nnc(-c2ccco2)o1)c1cc(-c2ccccc2)nc2ccccc12,6.42,9.5,26.4,25.5,77.1,54.8,36.5,43.5
CCn1c(-c2nonc2N)nc2cnc(Oc3cccc(NC(=O)c4ccc(OCCN5CCOCC5)cc4)c3)cc21,18.3,17.1,17.4,16.4,0,0,0,0
CCn1c(-c2nonc2N)nc2c(C#CC(C)(C)O)ncc(OC[C@H]3CCCNC3)c21,13,7.19,19.1,9.47,12.3,16.9,12.4,18.1
N#CC(c1ccnc(NCCc2cccnc2)n1)c1nc2ccccc2s1 (stereo not given),13,14.4,11,9.83,6.51,41.3,13.8,37.2
O=C(Nc1cc(Cl)cc2c1[nH]c1cnccc12)c1cccnc1 [PS1145 dihydrochloride],10.2,15.3,20.8,15.1,50.5,30,28.6,34.6

SMILES,percent SyTOX+ dead cells ([1]; rapamycin 0 nM) [%],percent SyTOX+ dead cells ([1]; rapamycin 20 nM) [%],percent SyTOX+ dead cells ([2]; rapamycin 0 nM) [%],percent SyTOX+ dead cells ([2]; rapamycin 20 nM) [%],percent ([3]; rapamycin 0 nM) [%],percent ([3]; rapamycin 20 nM) [%],percent ([4]; rapamycin 0 nM) [%],percent ([4]; rapamycin 20 nM) [%]
"CNC(=O)c1cc(COc2nnc(Nc3ccc(Cl)cc3)c3ccoc23)ccn1 [BAY 57-9352, Telatinib]",11.2,5.26,14.8,14.4,65.1,42.9,49.5,12.8
"Cc1cn(-c2cc(NC(=O)c3ccc(C)c(Nc4nccc(-c5cccnc5)n4)c3)cc(C(F)(F)F)c2)cn1 [Nilotinib, Tasigna, AMN-107]",7.1,5.1,16.2,10.8,42.3,35.7,5.71,7.18
"C[C@]12CC[C@H](O)CC1=CC[C@@H]1[C@@H]2CC[C@]2(C)C(c3cccnc3)=CC[C@@H]12 [Abiraterone, CB-7598]",9.96,15,11.8,7.48,37.6,43.4,46.1,34.8
CN1CCC(COc2cnc(-c3cccc(Cn4nc(-c5cccc(C#N)c5)ccc4=O)c3)nc2)CC1,8.03,2.01,11.1,11.7,69.5,97.7,74.3,83.5
NC(=O)c1ccc(-c2nc(-c3ccccn3)c(-c3ccc4c(c3)OCO4)[nH]2)cc1,14.9,18.8,17.6,13.9,58.5,26,28,29.2
CNC(=O)Nc1ccc(-c2nc(N3CC4CCC(C3)O4)c3cnn(C4CCC5(CC4)OCCO5)c3n2)cc1,2.6,1.69,12.7,10.1,63.2,60.2,36.4,45.1
Cc1cc(Nc2cc(C3CC3)[nH]n2)nc(Nc2ccc(CC#N)cc2)n1,44.2,32.4,74.9,45.5,0,12.2,0,0.32
NC1(C(=O)N[C@@H](CCO)c2ccc(Cl)cc2)CCN(c2ncnc3[nH]ccc23)CC1,2.84,8.24,14.7,9.96,33.2,17.6,30.4,6.13
CC[C@H](Nc1ncnc2[nH]cnc12)c1nc2cccc(F)c2c(=O)n1-c1ccccc1,6.03,2.67,21.9,16.9,37.2,55.6,38.7,20.2
C=CC(=O)N1CCC[C@@H](n2nc(-c3ccc(Oc4ccccc4)cc3)c3c(N)ncnc32)C1,11.1,4.26,52.5,48,98,18.1,7.63,0
Cc1c(NC(=O)OC[C@@H]2COCCN2)cn2ncnc(Nc3ccc4c(cnn4Cc4cccc(F)c4)c3)c12,9.62,11.4,20,11.8,19.2,19.2,15.5,16
Cn1cc(/C=C2\C(=O)Nc3cccnc32)c2ccccc21,7.74,15.9,19.3,25,56.5,43.5,9.9,24.2
O=C(O)c1ccc(-n2nc(-c3ccccc3O)nc2-c2ccccc2O)cc1,12.4,6.83,4.05,5.92,90,25.1,55.2,62.9
Cc1nc(NC(=O)N2CCC[C@H]2C(N)=O)sc1-c1ccnc(C(C)(C)C(F)(F)F)c1,8.59,12.7,25.6,26.8,43,20.4,60.6,55.3
Cc1ccc(NC(=O)CCCCCC(=O)Nc2ccccc2N)cc1,7.93,6.9,8.52,8.02,50,51.3,55.7,46
O=S(=O)(NCC1CC1)c1ccc(Nc2nccc(N3CCCc4cc(O)ccc43)n2)cc1 [Pyrintegrin],37.5,38.8,75.8,74.2,0,0,1.52,0
"O=C(NC1CCNCC1)c1[nH]ncc1NC(=O)c1c(Cl)cccc1Cl [AT-7519 hydrochloride, AT7519 hydrochloride]",36.2,25.8,47,30.5,13.1,14.7,5.73,1.3
Cc1cc2c(F)c(Oc3ncnn4cc(OC[C@@H](C)O)c(C)c34)ccc2[nH]1,15.9,22.9,18.5,13.9,22,14.7,6.52,11.4
Cc1nc2c(O)cccc2c(=O)[nH]1,16.7,8.37,10.5,21,62.8,40.6,32.6,29.6
COc1ccc(Cl)cc1NC(=O)Nc1cc(C)nc2ccccc12,11.9,11.4,11.8,11.9,67.3,61.4,44.1,43
NS(=O)(=O)c1nn2cc(-c3ccccc3)nc2s1,15.5,24.6,16.9,24.9,40.4,54.2,13.1,12.1
NC(=O)C1CCCc2c1[nH]c1ccc(Cl)cc21 (stereo not given),4.46,22.6,16.6,19.3,22.6,19.2,17,30.7
